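Method: 48-hour compound exposure of cells in 96-well plates, five concentrations, linear interpolation of endpoints. The concentration for 50% growth inhibition is given as GI50. TGI denotes the concentration required for complete inhibition of growth.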 Peptide text beside a SMILES is read from it.
Tested on: NCI-H322M lung
Assay: DTP human tumour cell line panel, 48 h

## C=C(C)[C@@H]1C/C=C(\COC(=O)[C@H](OC(C)=O)C(NC(=O)c2ccccc2)c2ccccc2)CC[C@H]2O[C@]2(C)CC/C=C(\C)CC1 (stereo partly drawn)
  GI50: 46.2 µM
  TGI: > 50 µM

## CC(=O)/C=C/CCC(=O)/C=C/C(=O)OC(CCC(=O)/C=C/C(=O)O)CC(C)=O (stereo not drawn)
  TGI: > 100 µM

## O[C@H]1C=C2[C@H](C[C@@H]1O)CN1C[C@H]2c2cc3c(cc21)OCO3
  GI50: 11.1 µM
  TGI: 48.2 µM

## CC(C)(C)c1cc2c(O)c(c1)C(c1ccccc1)c1cc(C(C)(C)C)cc(c1O)Cc1cc(C(C)(C)C)cc(c1O)C(c1ccccc1)c1cc(C(C)(C)C)cc(c1O)C2 (stereo not drawn)
  TGI: > 100 µM

## CN1CCN(Cc2ccc(NC(=O)c3cnc(F)c(C#Cc4cnc(N)c5ncccc45)c3)cc2C(F)(F)F)CC1
  GI50: 0.397 µM
  TGI: 11.6 µM

## CCN(CC)c1ncnc2c1ncn2CCNC(CO)(CO)CO
  TGI: > 100 µM

## COc1ccc(CN2CCc3c(Sc4ccccc4)nc(N)nc3C2=O)c(OC)c1
  GI50: 4.02 µM
  TGI: 16.9 µM

## CCC#CCCCCCCCCC(F)C(=O)O (stereo not drawn)
  TGI: > 100 µM

## CCCCCCCCCCCCCCCCNC(=O)OC(C)C
  GI50: 2.05 µM
  TGI: 5.49 µM

## Cc1nc2c(=O)n(C)c(=O)n(C)c2o1
  TGI: > 100 µM

## CC1(C)CC2=C(SC3C=CC=CC3N2)C(=O)C1C(=O)C(N)=O (stereo not drawn)
  TGI: > 100 µM

## O=C1Nc2ccccc2S/C1=C\c1ccc(C(F)(F)F)cc1
  TGI: > 100 µM

## COC(=O)C(Cc1c[nH]c2ccccc12)NC(=O)C(Cc1c[nH]c2ccccc12)NC(=O)OCc1ccccc1 (stereo not drawn)
  TGI: 36.4 µM

## CC(=O)NC(C)(C)C1CC=C(C)/C(=N\O)C1 (stereo not drawn)
  TGI: > 100 µM

## Cc1ccc(NC(=S)C#N)cc1Cl
  TGI: > 100 µM

## COc1ccc(/C=C2\CS(=O)(=O)C/C(=C\c3ccc(OC)cc3)C2=O)cc1
  GI50: 4.59 µM
  TGI: > 77.3 µM

## C[C@]12CCc3nonc3C1CC[C@@H]1C2CC[C@]2(C)C(=O)/C(=N\O)CC12 (stereo partly drawn)
  TGI: > 100 µM

## N#Cc1c(-c2ccccc2)n([O-])c2ccccc2[n+]1=O
  GI50: 23.6 µM
  TGI: 67.4 µM

## C/C=C(/C(=C/C)c1ccc(O)cc1)c1ccc(O)cc1
  GI50: 6.43 µM
  TGI: 22.3 µM

## Nc1ccc2nc3ccc(=O)cc-3n(-c3ccccc3)c2c1
  TGI: > 100 µM

## CCC(C)NC1=C(NC(C)=O)C(=O)c2ccccc2C1=O (stereo not drawn)
  TGI: > 75 µM

## C=C1C[C@]23CC[C@@H]4C(CO)(CO)CC(=O)C[C@]4(C)[C@@H]2CC[C@H]1C3
  TGI: > 100 µM

## Cc1noc(NS(=O)(=O)c2ccc(NC(=O)c3ccc4nc5ccccc5c(Nc5ccc(S(=O)(=O)Nc6onc(C)c6C)cc5)c4c3)cc2)c1C
  TGI: > 100 µM

## Cc1nn(-c2ccccc2)c(-n2ccnc2)c1/C=N/Nc1nc(-c2ccc(Cl)c(Cl)c2)cs1
  GI50: 8.33 µM
  TGI: 60.8 µM

## O=c1ccc(N=Nc2ccccc2)ccc1Cl
  GI50: 63.1 µM
  TGI: > 100 µM

## COc1cc(-c2cc(/C=C3\C(=O)Nc4ccc(Cl)cc43)[nH]n2)cc(OC)c1OC
  GI50: 8.62 µM
  TGI: > 100 µM

## CN1CN(c2ccccc2)C2(CCN(Cc3nc4ccccc4s3)CC2)C1=O
  TGI: 40.3 µM

## O=C1c2ccccc2C(=O)N1CCn1nc(-c2ccccc2)cc(-c2ccccc2)c1=O
  TGI: > 100 µM

## C=C1C(=O)O[C@H]2[C@H]1CC/C(COC(=O)NCc1ccc(Cn3c(=O)sn(CCI)c3=O)cc1)=C\CC[C@@]1(C)O[C@@H]21
  GI50: 15.1 µM
  TGI: 28.4 µM

## CN1C(c2ccccc2)CC(=NOCc2ccccc2)CC1c1ccccc1 (stereo not drawn)
  TGI: 61.8 µM

## CC1(C)CC(=O)C(C(=O)C(=O)NC2=C(Cl)C(=O)c3ccccc3C2=O)C(=O)C1
  TGI: > 100 µM

## C[C@H](CCC(=O)O)[C@H]1CC[C@H]2[C@@H]3[C@@H](O)C[C@@H]4C[C@H](O)CC[C@]4(C)[C@H]3CC[C@]12C
  TGI: > 100 µM

## CCOC(=O)c1ccc(NC(=O)Nc2nccs2)cc1
  GI50: 0.0818 µM
  TGI: 58.8 µM

## COc1ccc(NCC#N)cc1
  TGI: > 100 µM

## O=C(O)C1(C(=O)O)CC1
  TGI: > 100 µM

## CCOC(=O)c1oc2c(OC)cc(Cl)c3c2c1CCC3
  TGI: > 100 µM

## C=C(C)[C@@H]1CC[C@]2(COC(C)=O)CC[C@]3(C)[C@H](CC[C@@H]4[C@@]5(C)CCCN(C(C)=O)C(C)(C)[C@@H]5CC[C@]43C)[C@@H]12
  GI50: 1.63 µM
  TGI: 3 µM

## Cc1ccc(NC(=O)CC/C(CC(=O)C(C)(C)C)=N/Nc2nnc(C)n2N)cc1C
  TGI: > 100 µM

## CN(N=O)C(=O)N(N)CCCCC(NC(=O)OCc1ccccc1)C(=O)OCc1ccccc1 (stereo not drawn)
  TGI: > 100 µM

## COC(=O)C(C)(Cc1ccc2c(c1)nnn2C(C)=O)NC(C)=O (stereo not drawn)
  TGI: > 100 µM

## Cc1nc2nnnn2c2c1C(=O)Nc1ccccc1N2
  TGI: > 100 µM

## N#Cc1ccsc1Nc1ccccc1[N+](=O)[O-]
  TGI: > 100 µM

## CCOC(=O)c1c2c(n(Cc3ccc(Cl)cc3Cl)c1C)-c1nc(Cc3ccccc3)[nH]c1C(=O)C2=O
  GI50: 2.03 µM
  TGI: 5.21 µM

## CCN(CC)CCn1c(N)c(-c2nc3ccccc3n2C)c2nc(C#N)c(C#N)nc21
  GI50: 1.01 µM
  TGI: 6.17 µM

## COc1ccc(N2C(=O)C3c4[nH]c5ccc(OC)cc5c4C4CCC(C(C)C)CC4C3C2=O)cc1 (stereo not drawn)
  TGI: > 100 µM

## O=S(=O)(O)c1ccc2c(N=Nc3cccc4ccccc34)c(O)c(S(=O)(=O)O)cc2c1
  TGI: > 100 µM

## COc1cccc(NC(=O)CC(=O)Nc2cccc(OC)c2)c1
  TGI: > 100 µM

## NC(=O)c1ncn2c1NCC1OC2C(O)C1O (stereo not drawn)
  TGI: > 100 µM

## CSc1nc(-c2ccccc2)c(C#N)c(=O)[nH]1
  TGI: > 100 µM

## O=NNc1ccc(S(=O)c2ccccc2)cn1 (stereo not drawn)
  TGI: > 100 µM

## O=[N+]([O-])c1cc([N+](=O)[O-])c(N2CCCC2)cc1NN=C(c1ccc(O)cc1)c1ccc(O)cc1
  GI50: 13.8 µM
  TGI: 29 µM

## COc1cc(Br)c(CC2NCCc3cc(OC)c(OC)cc32)cc1OC (stereo not drawn)
  TGI: > 100 µM

## NCC(=O)NC1(C(=O)O)CCCC1 (HELM PEPTIDE1{G.[O=C(O)C1(N[*:1])CCCC1]}$$$$V2.0)
  TGI: > 100 µM

## COC(=O)[C@](NC(=O)OCc1ccccc1)([C@@H](C)Sc1ccc(C)cc1)C(F)(F)F
  TGI: > 100 µM

## COc1ccc(/C=N/Nc2nc(N)nc(N3CCCC3)c2C#N)cc1
  GI50: 21.1 µM
  TGI: 51.1 µM

## COc1ccc(C2CC(c3ccc4ccccc4c3O)=NN2)cc1OC (stereo not drawn)
  TGI: > 100 µM

## O=C(CSCC(=O)N/N=C/c1cccc(C(F)(F)F)c1)N/N=C/c1cccc(C(F)(F)F)c1
  TGI: > 100 µM

## c1cc(N2CCN(c3ccc(C4=NCCN4)cc3)CC2)ccc1C1=NCCN1
  GI50: > 100 µM
  TGI: > 100 µM

## COc1cc(-c2cncn2-c2ccc(-c3nc4ccc(F)cc4s3)cc2)ccc1F
  GI50: 36.3 µM
  TGI: > 100 µM

## COC(=O)[C@@H]1CCCN1C(=O)[C@@H]1CCCN1C(=O)[C@H](Cc1ccccc1)NC(=S)Nc1cc(C(F)(F)F)cc(C(F)(F)F)c1
  GI50: 9.46 µM
  TGI: > 100 µM

## COc1c(-c2nc3nc(N4CCN(C)CC4)ccc3[nH]2)cc(OC)c2c1nc(CO)n2C
  TGI: > 100 µM

## Cn1c([N+](=O)[O-])cnc1CN1CCN(CCO)CC1
  TGI: > 100 µM

## Nc1nc2cc(-c3ccc4ncc(C(=O)N5CCOCC5)n4c3)ccc2o1
  GI50: 3.84 µM
  TGI: > 100 µM

## CC(=O)OCC1OC(NC(=S)CCSc2nc3ccccc3c(=O)n2-c2ccccc2)C(OC(C)=O)C(OC(C)=O)C1OC(C)=O (stereo not drawn)
  TGI: > 100 µM

## N#Cc1nc(-c2cccnc2)oc1N
  TGI: > 100 µM

## O=C1C=CC(=O)N1n1c(Cc2ccccc2)n[nH]c1=O
  TGI: > 100 µM

## CC(C)(Oc1ccc(Cl)cc1)C(=O)NC1C2CC3CC1CC(NS(C)(=O)=O)(C3)C2 (stereo not drawn)
  GI50: > 100 µM
  TGI: > 100 µM

## CCSc1nc(-c2ccc(OC)cc2)c(C#N)c(=O)n1C1OCC(OC(C)=O)C(OC(C)=O)C1OC(C)=O (stereo not drawn)
  TGI: > 100 µM

## C=C(C)C[C@H](Sc1nc2ccccc2s1)[C@H](C)O
  TGI: > 100 µM

## O=C(Cc1ccc(OCc2cccc(Cl)c2)cc1)NO
  TGI: > 100 µM

## Cc1ccc(Nc2nc3c(s2)C(=O)c2ccccc2C3=O)cc1
  TGI: 3.24 µM

## COC(=O)C1CCC(=O)C(Sc2ccccc2)C1 (stereo not drawn)
  TGI: > 100 µM

## CCC(/C=C(C)/C=C/C(=O)c1c(O)c(-c2ccc(O)cc2)c[nH]c1=O)CO (stereo not drawn)
  GI50: 11.6 µM
  TGI: 26.1 µM

## Cc1ccc(NS(=O)(=O)c2ccc(-c3cnc(C4CC4)o3)cc2)cc1C
  GI50: 1.5 µM
  TGI: > 84.8 µM

## Oc1ccc(/C=C/c2ccc(O)cc2)cc1
  GI50: 11.7 µM
  TGI: > 100 µM

## CN1CCN(C(=S)N(C(=O)c2cccs2)c2ccccc2)CC1
  TGI: > 100 µM

## Cc1[nH]c2ncn(Nc3ccccc3)c(=N)c2c1Cc1ccccc1
  TGI: > 100 µM

## Cc1nnc([S-])o1.[Au+].c1ccc([PH+](c2ccccc2)c2ccccc2)cc1
  GI50: 1.62 µM
  TGI: 3.07 µM

## O=C(NC1CCCCC1)NS(=O)(=O)c1ccc(-n2nc3c(c2-c2cccs2)Cc2ccccc2-3)cc1
  GI50: 37.9 µM
  TGI: > 100 µM

## CSc1nn2c(-c3ccc4ccccc4c3)ccnc2c1C#N
  GI50: 5.94 µM
  TGI: > 100 µM

## Cc1cc(C)nc(NS(=O)(=O)c2ccc(NC(=O)c3cccc4c(Nc5ccc(S(=O)(=O)N=C(N)N)cc5)c5ccc(Cl)cc5nc34)cc2)n1
  TGI: > 100 µM

## COC(=O)c1sc(=O)n(-c2ccccc2)c1SCc1ccccc1
  TGI: > 100 µM

## Nc1[nH]c(=O)nc2c1cnn2Cc1ccccc1
  TGI: > 100 µM

## CC1OC(=O)C2CC3CCCCC3C(/C=C/C3CCCC(C)N3C)C12 (stereo not drawn)
  TGI: > 100 µM

## CC[C@@]1(O)C(=O)OCc2c1cc1n(c2=O)Cc2cc3c([N+](=O)[O-])c(OC)ccc3nc2-1
  GI50: 0.345 µM
  TGI: 6.16 µM

## Brc1sc(Br)c2c1[C@H](Br)C[C@@H]2Br
  TGI: > 100 µM

## Cn1cnc([N+](=O)[O-])c1Sc1nc2ncccc2[nH]1
  TGI: > 100 µM

## O=Cc1ccc(-c2nccc3c2[nH]c2ccccc23)o1
  TGI: > 100 µM

## O=C(/C=C\c1ccc(-c2ccccc2)cc1)c1cccs1
  TGI: > 100 µM

## COC(=O)Cc1ccc(Oc2nc3ccccc3nc2-c2cccs2)cc1
  TGI: > 100 µM

## COC(=O)CCC(C)[C@H]1CCC2C3C(C[C@H](OC(C)=O)[C@@]21C)[C@@]1(C)CCC2(C[C@H]1C[C@H]3OC(C)=O)OOC1(CCCCCCC1)OO2 (stereo partly drawn)
  TGI: > 100 µM

## O=c1[nH]c2cc(Cl)ccc2nc1/C(=N/Nc1ccccc1)C(O)c1ccco1 (stereo not drawn)
  TGI: > 100 µM

## C=C1C(=O)O[C@H]2[C@H]1CC/C(COC(=O)NCc1[nH]nc3ccccc13)=C\CC[C@@]1(C)O[C@@H]21
  GI50: 8.61 µM
  TGI: 21 µM

## COc1cc(C(=O)C(CO)Oc2ccccc2OC)ccc1O (stereo not drawn)
  TGI: > 100 µM

## O=C(O)CCc1nc2c(n1Cc1ccccc1)C(=O)c1ccccc1C2=O
  TGI: > 100 µM

## COC(=O)C12C3C4C1C1C2C3C41C(=O)O (stereo not drawn)
  TGI: > 100 µM

## CC(NC(=O)CNP(=O)(c1ccccc1)c1ccccc1)C(=O)NC(Cc1ccccc1)C(=O)OCc1ccccc1 (stereo not drawn)
  TGI: > 100 µM

— PubChem BioAssay (NCI)
